Measurements: US9776999B2, “Antiparisitic dihydroazole compounds and compositions comprising same” (MERIAL, INC., priority 2009, dated 2017)

System: Stomoxys calcitrans
Experiment: Contact activity of compounds against stable flies (Method D)
Conditions: adult flies, treated filter paper; assessment at 24 hours; test concentration of 5 μg/cm2 or less; versus untreated controls
Protocol: A small piece of absorbent cotton moistened with 10% sucrose and ten adult flies (Stomoxys calcitrans) were added to each dish. Dishes were capped and held at room temperature. Assessments were performed at 24 hours after infestation in comparison with untreated controls.

CSCCNC(=O)c1ccc(C2=NOC(c3cc(Cl)cc(Cl)c3)(C(F)(F)F)C2)n2cccc12 (stereo not shown) [Compound 1.013, 5-[5-(3,5-Dichlorophenyl)-5-trifluoromethyl-4,5-dihydroisoxazol-3-yl]-indolizine-8-carboxylic acid (2-methylthioethyl)-amide]
control (Stomoxys calcitrans, contact): at least 80%
